Measurements as given in publication PMC4336329 (PLoS ONE, 2015).
The campaign covered roughly 310,000 compounds. About 2,200 (0.71%) showed an effect of 50% or more. Effects have a minus sign here. The list shows a part of the results.

Biological target: human ether-à-go-go-related gene (hERG) potassium channel (human, UniProt Q12809)
Assay: primary screen, population patch clamp on CHO cells stably expressing hERG

human ether-à-go-go-related gene (hERG) potassium channel, sequence (Q12809 whole entry, looked up): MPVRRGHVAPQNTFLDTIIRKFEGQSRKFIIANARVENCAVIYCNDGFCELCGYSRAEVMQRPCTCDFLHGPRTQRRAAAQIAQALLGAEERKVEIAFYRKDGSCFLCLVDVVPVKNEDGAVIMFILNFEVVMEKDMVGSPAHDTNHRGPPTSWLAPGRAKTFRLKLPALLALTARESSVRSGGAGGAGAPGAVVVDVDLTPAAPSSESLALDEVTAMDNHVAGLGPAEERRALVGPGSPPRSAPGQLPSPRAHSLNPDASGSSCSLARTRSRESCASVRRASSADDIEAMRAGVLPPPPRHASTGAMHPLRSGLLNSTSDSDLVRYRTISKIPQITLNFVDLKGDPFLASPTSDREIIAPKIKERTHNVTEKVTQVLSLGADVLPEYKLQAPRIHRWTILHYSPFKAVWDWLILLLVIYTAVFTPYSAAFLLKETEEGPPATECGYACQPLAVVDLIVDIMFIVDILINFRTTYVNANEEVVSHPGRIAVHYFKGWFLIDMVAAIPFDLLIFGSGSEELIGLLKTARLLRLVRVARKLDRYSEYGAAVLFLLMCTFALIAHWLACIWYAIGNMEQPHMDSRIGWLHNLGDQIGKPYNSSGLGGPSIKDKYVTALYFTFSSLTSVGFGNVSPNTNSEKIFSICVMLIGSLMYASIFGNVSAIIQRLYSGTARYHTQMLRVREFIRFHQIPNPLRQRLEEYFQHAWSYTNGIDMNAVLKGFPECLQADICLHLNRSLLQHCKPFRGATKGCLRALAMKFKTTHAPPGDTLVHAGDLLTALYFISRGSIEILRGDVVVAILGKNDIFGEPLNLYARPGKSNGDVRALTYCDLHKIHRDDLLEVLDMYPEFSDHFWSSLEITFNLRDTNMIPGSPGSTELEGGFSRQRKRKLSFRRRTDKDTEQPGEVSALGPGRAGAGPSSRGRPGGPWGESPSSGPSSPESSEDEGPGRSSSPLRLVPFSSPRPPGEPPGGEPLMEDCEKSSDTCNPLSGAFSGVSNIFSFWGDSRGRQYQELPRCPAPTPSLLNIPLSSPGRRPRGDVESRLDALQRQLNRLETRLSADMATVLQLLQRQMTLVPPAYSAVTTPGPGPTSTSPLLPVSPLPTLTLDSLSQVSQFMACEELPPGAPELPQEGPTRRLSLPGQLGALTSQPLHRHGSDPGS

| SMILES | hERG current change (%, negative = inhibition) at 1uM |
| --- | --- |
| CCc1ccc(CN(C)C(=O)c2cc(S(=O)(=O)N3CCN(CC)CC3)ccc2Cl)cc1 | 5.61% |
| Cc1cc(C=O)c(C)n1-c1ccc(NC2CCCC2)c([N+](=O)[O-])c1 | 4.18% |
| COc1cccc(-c2csc(N3CCN(Cc4ccccc4)CC3)n2)c1 | 9.14% |
| O=[N+]([O-])c1ccccc1CN1CCN(S(=O)(=O)Cc2ccccc2)CC1 | 2.33% |
| Cc1nc(Sc2ccc(Cl)cc2)c(C#N)c(C)c1[N+](=O)[O-] | 7.49% |
| C=C(C)c1cccc(C(C)(C)NC(=O)Nc2ccc3[nH]c(=O)[nH]c3c2)c1 | 2.45% |
| Cc1[nH]c(C)c(S(=O)(=O)N2CCN(c3cccc(Cl)c3)CC2)c1C(=O)N1CCCC1 | 9.64% |
| O=C(CN1CCOCC1)Nc1ccc(N2CCN(c3ccccc3)CC2)c(F)c1 | 11.9% |
| CS(=O)(=O)N(CC(=O)Nc1ccccc1C(=O)N1CCOCC1)c1ccc(F)c(Cl)c1 | 14.2% |
| OC(c1ccccc1)c1nccn1Cc1ccccc1 (stereo not drawn) | 7.15% |
| CNc1nc(SC)nc2ccccc12 | 16.4% |
| Cc1cc(C)n(CCOc2nonc2N)n1 | 5.69% |
| CCN1CCN(C(=O)CN(C)S(=O)(=O)c2ccc3ccccc3c2)CC1 | 10.6% |
| CCOc1cc2c(C#N)c(N3CCCC3)nc(N)c2c(N)n1 | -0.114% |
| CC(NC(=O)CCSCc1ccccc1F)c1ccccc1 (stereo not drawn) | 13.6% |
| CCOC(=O)N/N=C(C)/C=C/c1ccco1 | 11% |
| O=C(CSc1ccccc1F)NC1CCS(=O)(=O)C1 (stereo not drawn) | 9.8% |
| O=C(CNC(=O)c1cccs1)OCC(=O)c1ccccc1 | 12.6% |
| CC(CCc1ccccc1)NC(=O)CN1CCSc2ccccc21 (stereo not drawn) | 11.9% |
| Cc1cc(C)cc(OC(C)C(=O)Nc2ccccc2C(=O)NCc2cccnc2)c1 (stereo not drawn) | 14.2% |
| CC(=O)Nc1cccc(NC(=O)C2CCN(C(=O)c3ccco3)CC2)c1 | 11.4% |
| CCCCn1c(N)c(N(CCOC)C(=O)CN(C)S(=O)(=O)c2ccc(Cl)cc2)c(=O)[nH]c1=O | 15.6% |
| O=C(OC(C(=O)NCC1CCCO1)c1ccc(F)cc1)c1cccs1 (stereo not drawn) | 0.0575% |

| SMILES | hERG current change (%, negative = inhibition) at 1uM |
| --- | --- |
| Cc1nc(-c2ccc(Cl)cc2)sc1C1(C)CC(c2cccc(F)c2)=NO1 (stereo not drawn) | 9.58% |
| C=CCn1c(=O)c2ccccc2n2c(SCC(=O)Nc3sc(C)c(CC)c3C(=O)OCC)nnc12 | 13.8% |
| CSCCNC(C)=O | 15.3% |
| COC(=O)c1ccc(COC(=O)c2[nH]c(C)c(C(C)=O)c2C)o1 | 14.2% |
| CC1(C)C2([N+](=O)[O-])CNCC1([N+](=O)[O-])CNC2 | 3.17% |
| Cc1ccc(O)c(NC(=O)c2cc(-c3ccccc3Cl)on2)c1 | 23.9% |
| COC(=O)c1c[nH]n2c(=O)c(Cl)c(C)nc12 | 12.1% |
| NS(=O)(=O)c1ccc(CCNS(=O)(=O)c2ccc(Cl)nc2)cc1 | 14.8% |
| O=C(COC(=O)c1n[nH]c2ccccc12)NC(=O)NC12CC3CC(CC(C3)C1)C2 | 2.58% |
| Cc1cccc(C)c1NC(=O)c1c(C)nn(-c2ccccc2)c1Cl | -2.32% |
| CCOC(=O)C1=C(C)OC(N)=C(C#N)C1c1ccc(C)o1 (stereo not drawn) | 7.95% |
| Cc1cc(=O)[nH]c(N/N=C/c2ccco2)n1 | 8.8% |
| CC(=O)Nc1cccc(C(=O)OC(C)C(=O)NC2CCCc3ccccc32)c1 (stereo not drawn) | 13.9% |
| O=C(c1ccc(Cn2c(=S)[nH]c3ccccc3c2=O)cc1)N1CCN(c2ccccn2)CC1 | 10.5% |
| COc1ccc(C2C3=C(Nc4ncnn42)c2ccccc2CC3)cc1OC (stereo not drawn) | 11.5% |
| Cc1ccc(NC(=O)COc2cccnc2[N+](=O)[O-])cc1S(=O)(=O)N1CCCCC1 | 5.19% |
| O=C(Nc1ccc(Cl)cc1)Nc1ccc(-c2cnco2)cc1 | 10.7% |
| C=COC(=O)CSc1nc(-c2cccs2)ccc1C#N | 12.6% |
| COCC(C)n1c(C)cc(C(=O)COC(=O)c2oc3ccccc3c2C)c1C (stereo not drawn) | 6.64% |
| O=C(O)c1cc(NCc2ccc(F)cc2)ccc1N1CCOCC1 | 3.26% |
| Cc1ccc(NC(=O)c2ccco2)c([N+](=O)[O-])c1 | 12.9% |
| COC(=O)c1ccc(-c2sc3nc(N4CCOCC4)c4c(c3c2N)CC(C)(C)OC4)o1 | 0.682% |
| Cc1ccc(NC(=O)C2CCCN(S(=O)(=O)c3ccc(-n4cnnn4)cc3)C2)cc1 (stereo not drawn) | -8.28% |

| SMILES | hERG current change (%, negative = inhibition) at 1uM |
| --- | --- |
| Cc1ccc2nc(NC(=O)CSc3nnc(C)c(=O)n3N)sc2c1 | 10.2% |
| CN1CCN(CCP(=O)(c2ccccc2)c2ccccc2)CC1 | 13.3% |
| CCCCCC(=O)N/N=C(\C)c1ccc(NC(=O)c2ccco2)cc1 | 8.99% |
| C/C(=N\NC(=O)C1CC1)c1ccccc1O | 2.12% |
| Cc1ccc(-n2c(SCC(=O)Nc3ccc4c5c(cccc35)CC4)nc(O)cc2=O)cc1 | 8.12% |
| Cc1ccc(S(=O)(=O)Nc2ccc(-n3cnnn3)cc2)cc1 | 5.36% |
| O=C1CCCc2c1[nH]c1ccc(Br)cc21 | 17.6% |
| CCN=c1scc(C)n1/N=C/c1ccsc1 | -5.98% |
| O=C(CC1C(=O)NCCN1Cc1ccc(-c2ccccc2)cc1)NCC1CCOCC1 (stereo not drawn) | 3.45% |
| Cc1ccc(C)c(NC(=O)c2ccccc2NS(=O)(=O)c2cc([N+](=O)[O-])ccc2C)c1 | -0.824% |
| CCc1nnc(NC(=O)C2CCCN2C(=O)NC2CCCCC2)s1 (stereo not drawn) | 12.3% |
| CNc1nc(-c2ccc3c(c2)CCN3C(=O)CC(C)(C)C)c(C)s1 | 20.1% |
| Cc1cccc(-n2c(Cc3ccccc3)n[nH]c2=S)c1 | -0.101% |
| Cc1cc(C)c(S(=O)(=O)Nc2ccc(OCC(=O)O)cc2)c(C)c1 | 14.7% |
| Cc1oc(-c2ccc(Cl)cc2)nc1CN1CCC(C(=O)NCc2ccco2)CC1 | -58.3% |
| O=C(NCCCN1CCCC1)Nc1cccc2ccccc12 | -4.77% |
| Cc1[nH]n(-c2ccc(Cl)c(Cl)c2)c(=O)c1CCO | 12.7% |
| CC1(C)COC(c2coc3ccccc3c2=O)OC1 | 5.93% |
| COc1ccc(N2CCN(C(=O)c3oc4c(c3C)C(=O)CCC4)CC2)cc1 | 13.8% |
| Cc1ccc(C(=O)NNC(=O)c2ccncc2)cc1S(=O)(=O)N1CCOCC1 | 8.27% |
| OC(CNCc1ccccc1)c1ccccc1 (stereo not drawn) | 10.9% |
| C=CCN1C(=O)C2(C(C(=O)OCC)=C(N)Oc3ccccc32)C2=C1CCCC2=O (stereo not drawn) | 3.9% |
| COc1ccc(CN2CCc3ccccc3C2)cc1Br | 13.9% |

| SMILES | hERG current change (%, negative = inhibition) at 1uM |
| --- | --- |
| COc1ccc(C2c3c(oc4ccccc4c3=O)C(=O)N2CC2CCCO2)cc1 (stereo not drawn) | 6.25% |
| COc1ccc(Nc2cnn(-c3nc4ccccc4s3)c(=O)c2Cl)cc1 | 3.84% |
| CC(C)CCN(C)C1CCN(S(=O)(=O)c2ccc(F)cc2)CC1.Cl | -23% |
| Cc1ccc(NC(=O)CSc2nnc([C@@H]3CCCN3C(=O)OC(C)(C)C)o2)c(C)c1 | 14.1% |
| COc1ccc(S(=O)(=O)N(C)C)cc1NC(=O)CN1CCN(C(=O)C2CC2)CC1 | 11.8% |
| CCn1c(CNC(=O)Cc2ccc(OC)cc2)nnc1SCCOc1ccccc1 | -0.161% |
| CC1CCCCC1NC(=O)CCC(=O)N1CCOc2ccc(Cl)cc21 (stereo not drawn) | 0.944% |
| COc1cc(NC(=S)N2CCC(C(N)=O)CC2)cc(OC)c1 | -2.75% |
| COCc1nnc(NC(=O)CSc2ccccc2)s1 | -0.93% |
| CCOC(=O)[C@H]1[C@H]2COc3ccc(Cl)cc3[C@@H]2N2C(=O)CN(Cc3ccc(F)cc3)C(=O)[C@@]12C | 17.6% |
| Nc1c(N(CCC2=CCCCC2)C(=O)C2CC2)c(=O)[nH]c(=O)n1Cc1ccccc1 | 5.13% |
| Cc1ccc(CC(=O)N2CCN(S(=O)(=O)c3ccccc3)CC2)cc1C | -3.83% |
| CCN(CC)S(=O)(=O)c1cc(NC(=O)CCNC(=O)c2ccco2)ccc1C | 8.26% |
| COc1ccccc1N(C(=O)Cn1nnc2ccccc21)C(C(=O)NCc1ccco1)c1ccc(C)o1 (stereo not drawn) | 8.67% |
| CCOC(=O)NC(=S)c1ccc[nH]1 | 7.62% |
| CCOC(=O)C1CCCN(C(=O)CCCn2nc(C)n3c(cc4sccc43)c2=O)C1 (stereo not drawn) | -10.4% |
| Cc1ccnc(NS(=O)(=O)c2ccc(N3C(=O)C4CCCCC4C3=O)cc2)n1 (stereo not drawn) | 18.9% |
| Cc1cc(C)n(C(=O)c2cccc(S(=O)(=O)N3CCCCC3)c2)n1 | 9.1% |
| CSc1nc(C)cc(SCC(=O)Nc2ccccc2)n1 | -11.2% |
| Clc1ccccc1CSc1nnc(-c2ccccn2)n1Cc1ccco1 | 0.889% |
| O=C(COc1ccc(-c2ccccc2)cc1)N/N=C/c1ccccc1Br | 16.3% |
